Assay results from the RNAGym collection of RNA variant scans (doi:10.1093/nar/gkz1192).
The source gives no read counts; variants with many changes may rest on few reads.

B1: CPEB3 Ribozyme (parent)
chain: UAACAGGGGGCCACAGCAGAAGCGUUCACGUCGCAGCCCCUGUCAGAUUCUGGUGAAUCUGCGAAUUCUGCUGUAUAUCUC

Variants of: B1
Experiment: self-cleavage, relative activity (ratio to wild type); higher = more cleavage; in vitro, sequencing
How it was run: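 After error-prone PCR and barcoding, CPEB3 ribozyme mutant libraries were transcribed with T7 RNA polymerase at 37°C for 5 hours, then given 15 min with DNase I before an EDTA stop, and they cleaved during both steps. Reverse transcription with template switching preceded Illumina sequencing. Relative activity divides a variant's cleaved/total read fraction by the unmutated ribozyme's. At least 5 reads were required per variant, and three batches were averaged.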

| Variant | self-cleavage |
| --- | --- |
| UAACAGGGGGCAACAGCAGAAGCGUUCCCGUCGCAGCCCCUGUCAGACUCUGGUGAAUCUGCGAAUUCUGCUGUAUACCUC [C12A A28C U48C U78C] | 0.3 |
| UAACAGGGGGCAACAGCAGAAGCGUUCACGUCGCGGCCCCUGCCAGAUUCUGGUGAAUCUGCGAAUUCUGCUGUACGUCUC [C12A A35G U43C U76C A77G] | 0.5 |
| UAACAGGGGGCAACAGCAGAAGCGUUCACGUCGCUGCCCCUGUCAGAUUCUGGUGAAUCUGCGAACUCUGCCGUACAACUC [C12A A35U U66C U72C U76C U78A] | 0.57 |
| UAACAGGGGGCAACAGCAGAAGCGUUCACGUCGCAGCCCCUGUCAGAUUCUGGUGGACCUGCGAAUUCUGCUGUACACCUC [C12A A56G U58C U76C U78C] | 0.2 |
| UAACAGGGGGCAAAAGCAGAAGCGUUCACGUCGCAGCACCUGUCAGAUUCUGGUGAGUCUGCGAAUUCUGCUGUAUAUCUC [C12A C14A C38A A57G] | 0.37 |
| UAACAGGGGGCAACAGUAGAAGCGUUCACUUCGCAGCCCCUGUCGGAUUCUGGUGAAUCUGCGAAUUCUGCUGUAUUUCCC [C12A C17U G30U A45G A77U U80C] | 0.22 |
| UAACAGGGGGCAACAGCAGAAGAGUUGACGUCGCAGCCCCUGUCAGAUUCUGGUGUUUCUACGUAUUCUGCUGUAUAUCUC [C12A C23A C27G A56U A57U G61A A64U] | 0.06 |
| UAACAGGGGGCAACAGCAGAAGUGUUCACGACGCGGCCCCAGUCAGAUUCUGGCGAAUCUGCGAAUUCUGCUGUAUAUCUC [C12A C23U U31A A35G U41A U54C] | 0.07 |
| UAACAGGGGGCAACAGCAGAAGCGUUGACGUCGCAGCCCCUGUCAGCUUCCGGUGAAUCUGCGAAUUCUGCUGUAUAUCCC [C12A C27G A47C U51C U80C] | 0.17 |
| UAACAGGGGGCAACAGCAGAAGCGUUGACGUCGCAGCCCCUGUCAGAUUCUGGUGGAUCUGCGAAUUCAGCUGUAUAUCUC [C12A C27G A56G U69A] | 0.2 |
| UAACAGGGGGCAACAGCAGAAGCGUUCAUGUCGCAGCCCCCGUCAGAUUCCGGUGAAUCUGCGAAUUUUGCUGUAUAUCCC [C12A C29U U41C U51C C68U U80C] | 0.39 |
| UAACAGGGGGCAACAGCAGAAGCGUUCACGUCGCAGCCCUUGUCAGACUCUGGUGAAUCUGCGAAUUCUGCUGUAUACCUC [C12A C40U U48C U78C] | 0.11 |
| UAACAGGGGGCAACAGCAGAAGCGUUCACAUCGCAGCUCAUGUCAGAUUCUGGUGACUCUGCGAAUCCUGCUGUAUAUCUC [C12A G30A C38U C40A A57C U67C] | 0.06 |
| UAACAGGGGGCAACAGCAGAAGCGUUCACAUCGCAGCCCCCGUCAGAUUCUGGUGAAUCUGCGAAUUCUGCUGUAUAUCUC [C12A G30A U41C] | 0.19 |
| UAACAGGGGGCAACAGCAGAAGCGCUCACGUCGCAGCCCCUGUCAGUUUCUGGUGAAUCUCCGAAUUCUGCUGAAUAUCUC [C12A U25C A47U G61C U74A] | 0.14 |
| UAACAGGGGGCAACAGCAGAAGCGCUCACGUCGCAGCCCCUGUCAGAUUCUGGUGAUUCUGUGAAUUCUGCUGUAUAUCUA [C12A U25C A57U C62U C81A] | 0.09 |
| UAACAGGGGGCAACAGCAGAAGCGCUCACGUCGCAGCCCCUGUCAGAUUCUGGUGAAUCUGCGUAUACGGCUGUAUAUCUC [C12A U25C A64U U67A U69G] | 0.15 |

| Variant | self-cleavage |
| --- | --- |
| UAACAGGGGGCAACAGCAGAAGCGCUCACGUCACAGCCCCUGUCGGAUUCUGGUGUAUCUGCGAAUUCUGCUGUAUAUCUC [C12A U25C G33A A45G A56U] | 0.09 |
| UAACAGGGGGCAACAGCAGAAGCGCUCACGUCGCAGCCCCUGUCAGAUACUGGUGAAUCUGCGAAUUCUGCUGUAUAUCUC [C12A U25C U49A] | 0.34 |
| UAACAGGGGGCAACAGCAGAAGCGUCCACGUCGCAGCCCCUGACAGAUUCUGGUGAAUCUGCAAAUUCUGCUGUGUAUCUC [C12A U26C U43A G63A A75G] | 0.17 |
| UAACAGGGGGCAACAGCAGAAGCGUUCACGACGCAGCCCCUGUCGGAUUCUGGUGAACCUGCGAAUUCUGCAGUAUAUCCC [C12A U31A A45G U58C U72A U80C] | 0.14 |
| UAACAGGGGGCAACAGCAGAAGCGUUCACGCCGCAGCCCCUGUCAGAUUCUGGCGAAUCUGCGAAUUCUGCUGUAUAUCUC [C12A U31C U54C] | 0.9 |
| UAACAGGGGGCAACAGCAGAAGCGUUCACGUCGCAGCCCCCGUCAGAUUCUGGCGAAUCUGCGAAUUCUGCUGUAUAUCUC [C12A U41C U54C] | 0.94 |
| UAACAGGGGGCAACAGCAGAAGCGUUCACGUCGCAGCCCCUGCCAGAUUCUGGUGAAACUGCGAAUUCUGCUGUAUAUCUC [C12A U43C U58A] | 0.11 |
| UAACAGGGGGCAACAGCAGAAGCGUUCACGUCGCAGCCCCUGUCAGACUCUGGUGAAUCUGCGAAUUCUGCUGCAUACCUC [C12A U48C U74C U78C] | 0.75 |
| UAACAGGGGGCAACAGCAGAAGCGUUCACGUCGCAGCCCCUGUCAGAUCCUGGUGAAUCUGCGAAUUCUGCUGAAUAUCAC [C12A U49C U74A U80A] | 1.08 |
| UAACAGGGGGCAACAGCAGAAGCGUUCACGUCGCAGCCCCUGUCAGAUUCAGGUGAAUCUGCGAACUCUGCUGUAUAUCUC [C12A U51A U66C] | 0.4 |
| UAACAGGGGGCGGCGGCAGAAGCGUUCACGUCGCAGCCCCUGUCAGAUUCAGGUGAAUCUGCGAAUUCUGUAGUAUAUCUC [C12G A13G A15G U51A C71U U72A] | 0.07 |
| UAACAGGGGGCGGCAGCGGAAGCGUUCACGUCGCAGCCCCUGUCAGAUUCUGGUGAAUCUGCGAAUUUUGCUGUAUAUCCC [C12G A13G A18G C68U U80C] | 0.39 |
| UAACAGGGGGCGGCAGCAGAAGCGUUCGCGUCGCAGCCCCUGUCAGAUUCUAGUGAAUCUGCGAACUCUGCUGUAUAUCUC [C12G A13G A28G G52A U66C] | 0.07 |
| UAACAGGGGGCGGCAGCAGAAGCGUUCACGUCGCAGCCCCUGUCUGAUUCUGGUGAAUCCGCGAAUUCUUCUGUAUAUCUC [C12G A13G A45U U60C G70U] | 0.07 |
| UAACAGGGGGCGGCAGCAGAAGCGUUCACGCCGCAGCCCCUGUCUGAUUCAGGUGAAUCUGCGAAUUCUGCUGUAUAUCGC [C12G A13G U31C A45U U51A U80G] | 0.05 |
| UAACAGGGGGCGGCAGCAGAAGCGUUCACGUCGCAGCCCCUGUCAGAAUCUGGUAAAUCUGCGAAUUCUGCUGGAUAUCUC [C12G A13G U48A G55A U74G] | 0.11 |
| UAACAGGGGGCGGCAGCAGAAGCGUUCACGUCGCAGCCCCUGUCAGAUUCUGGUGAAUCUGCGAAUUCUGCCGUAUAUCUC [C12G A13G U72C] | 0.62 |
